According to PubChem BioAssay AID504332 (National Center for Advancing Translational Sciences (NCATS), 2011):
Hit rate of the full screen: of about 350,000 compounds, about 31,000 (8.9%) were called active. Inconclusive results, whose numbers are uncertain, are shown with a selection of clear calls. Calls follow the shape of the dose curve; as a rule, active = well fitted inhibition curve with a large enough effect; inconclusive = small, poorly fitted or top-dose-only effect; inactive = no such curve, though single readings can be large or run the other way. Where the call is inconclusive, the potency comes from a doubtful curve fit.

biological target: Histone-lysine N-methyltransferase EHMT2 (Homo sapiens) (UniProt Q96KQ7); test: qHTS Assay for Inhibitors of Histone Lysine Methyltransferase G9a; details: G9a H3K9 monomethylation, AlphaScreen, 2 h; activity, negative = inhibition: at 59 µM (top of the series) unless noted; also: nearly all actives have a fitted effect of over 75% in size
Method in brief: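 Signal arises when biotinylated H3K9 peptide, once monomethylated, bridges streptavidin donor and antibody-captured acceptor beads. Enzyme at 20 nM was preincubated 15 min with test compounds; peptide 500 nM and SAM 20 uM then reacted for 2 h.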
% is scaled to controls: 0 for no effect and ±100 for the full control effect; potency is read from the fitted curve at half-maximal effect; tags tell the direction and shape of the fitted curve.

Chain of UniProt Q96KQ7 (Q96KQ7 whole entry, looked up): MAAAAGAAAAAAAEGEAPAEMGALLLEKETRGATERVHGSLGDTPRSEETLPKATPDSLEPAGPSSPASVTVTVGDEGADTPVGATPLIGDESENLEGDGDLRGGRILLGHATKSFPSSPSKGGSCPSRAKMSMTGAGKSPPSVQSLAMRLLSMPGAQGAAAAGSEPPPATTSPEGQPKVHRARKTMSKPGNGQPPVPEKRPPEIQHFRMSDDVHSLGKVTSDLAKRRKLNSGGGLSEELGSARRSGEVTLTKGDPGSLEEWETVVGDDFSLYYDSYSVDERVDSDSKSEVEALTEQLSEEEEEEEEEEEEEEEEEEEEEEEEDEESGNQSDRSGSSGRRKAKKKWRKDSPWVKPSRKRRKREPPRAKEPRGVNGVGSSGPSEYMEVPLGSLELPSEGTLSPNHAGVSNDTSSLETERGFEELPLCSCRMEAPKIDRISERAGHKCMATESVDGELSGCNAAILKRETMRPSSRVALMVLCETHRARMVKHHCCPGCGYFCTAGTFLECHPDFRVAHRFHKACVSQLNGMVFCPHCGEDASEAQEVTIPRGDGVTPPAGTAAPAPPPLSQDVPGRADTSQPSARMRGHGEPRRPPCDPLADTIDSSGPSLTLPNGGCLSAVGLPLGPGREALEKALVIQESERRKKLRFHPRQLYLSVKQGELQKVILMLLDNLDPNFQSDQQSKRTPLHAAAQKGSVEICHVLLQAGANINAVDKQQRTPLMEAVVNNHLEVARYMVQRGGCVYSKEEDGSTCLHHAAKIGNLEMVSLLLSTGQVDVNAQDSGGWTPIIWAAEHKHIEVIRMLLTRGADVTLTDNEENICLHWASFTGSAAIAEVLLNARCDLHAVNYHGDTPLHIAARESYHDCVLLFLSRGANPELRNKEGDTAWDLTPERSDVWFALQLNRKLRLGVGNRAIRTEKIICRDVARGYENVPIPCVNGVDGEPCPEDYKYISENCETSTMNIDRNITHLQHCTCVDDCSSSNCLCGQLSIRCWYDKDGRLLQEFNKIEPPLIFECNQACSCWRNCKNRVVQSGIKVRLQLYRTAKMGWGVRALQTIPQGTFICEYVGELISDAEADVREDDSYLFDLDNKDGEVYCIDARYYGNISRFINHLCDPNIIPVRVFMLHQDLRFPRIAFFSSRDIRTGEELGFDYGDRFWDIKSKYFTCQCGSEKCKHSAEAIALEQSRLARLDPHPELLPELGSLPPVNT

| Structure (SMILES) | Potency | activity, negative = inhibition |
| --- | --- | --- |
| COc1ccc(CCNC(=O)CCCCn2c(=O)c3ccccc3n(Cc3ccccc3)c2=O)cc1OC | inconclusive: 0.1 µM [inhibitor, full curve, poor fit] | – |
| CCN(C(=O)c1ccco1)c1nnc(-c2cccnc2)s1 | inconclusive: 79.4 µM [inhibitor, single point] | – |
| Cc1c(C(=O)O)cccc1-c1ccc(/C=N/Nc2ccc(Br)cc2)o1 | active: 10 µM | – |
| Cc1cc(C(=O)CSc2nnnn2C)c(C)n1Cc1ccco1 | inconclusive: 39.8 µM [inhibitor, partial curve, poor fit] | – |
| CCn1nnnc1SCC(=O)N1CCN(c2ccccc2)CC1 | inconclusive: 89.1 µM [inhibitor, single point] | – |
| O=C(CCN1CCOCC1)Nc1cccc(Br)c1 | – | inactive: -29.8% [at 12.7 µM] |
| O=C(CSCC(=O)OCn1nnc2ccccc2c1=O)Nc1ccc(Cl)cc1 | active: 44.7 µM | – |
| CC(=O)Oc1cccc(/C=C2\C=C(c3ccc(C)cc3)OC2=O)c1 | inconclusive: 39.8 µM [inhibitor, single point] | – |
| O=C(Nc1ccccc1C(=O)N1CCCCC1)c1ccc(Cl)cc1Cl | inactive | – |
| CCOC(=O)c1ccccc1NC(=O)CSc1ncc(C(=O)OCC)c(N)n1 | – | inconclusive: -65.3% [inhibitor] |
| Cc1ccc2nc3c(c(Nc4ccc(C)c(C)c4)c2c1)CCC3 | inactive | – |
| O=[N+]([O-])c1ccc(N2CCCCC2)cc1NCCOc1ccccc1 | inconclusive: 3.55 µM [inhibitor, single point] | – |
| CCn1c2c(c(=O)n3ncc(C(=O)Nc4ccc(Cl)cc4C)c13)CN(Cc1ccc(OC)cc1)CC2 | inactive | – |
| CCCN1CCc2c(sc(NC(=O)Cc3ccc(F)cc3)c2C(N)=O)C1 | inconclusive: 89.1 µM [inhibitor, single point] | – |
| O=C(/C=C/c1ccco1)NC(=S)Nc1ccc(Cl)cn1 | active: 39.8 µM | – |
| COc1ccccc1Nc1nc(N)nc(-c2cc3ccccc3o2)n1 | inconclusive: 35.5 µM [inhibitor, partial curve, poor fit] | – |
| Cc1ccc2[nH]c3c(c2c1)CCN(C)C3 | inconclusive: 39.8 µM [inhibitor, partial curve, poor fit] | – |
| COc1cc(NC(=S)N2CCC(C(O)(c3ccccc3)c3ccccc3)CC2)cc(OC)c1 | inconclusive: 25.1 µM [inhibitor, full curve] | – |
| O=C(NCCSCc1ccccc1)c1ccc(C2SCC(=O)N2Cc2ccccc2)cc1 (centres undefined) | inconclusive: 31.6 µM [inhibitor, single point] | – |
